# Source: PubChem BioAssay AID1508642 (National Center for Advancing Translational Sciences (NCATS), 2021)
# Out of some 43,000 compounds screened, about 200 (0.47%) were called active. Not shown: some 12% with an inconclusive outcome. Calls come from the whole dose curve; as a rule, active = well fitted cell-killing curve with a large enough effect; inconclusive = small, poorly fitted or top-dose-only effect, or effect the other way; inactive = flat fitted curve, though single readings scatter. The list shows a part of the results.
# Assay: Cell viability qHTS assay in S16 Pmp22-F2sN cells; note: nearly all actives have a fitted effect of over 65% in size
# Conditions: S16 Pmp22-F2sN Schwann cells (luciferase reporters placed in the Pmp22 gene) viability, CellTiter-Glo, 24 h; series mostly up to 57.5 µM; activity change, negative = cytotoxicity: at the top concentration
# Summary of the method: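 Luminescence from CellTiter-Glo, read by CCD camera after a 15 min room-temperature incubation, served as the viability signal. Reporter Schwann cells (S16 Pmp22-F2sN) had been treated with pin-transferred compounds for 24 h at 37C.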
# % is set by controls: 0 for no effect and ±100 for the full control effect; potency is the fitted concentration of half-maximal effect.
Compound,"activity change, negative = cytotoxicity",Potency
CCCN1CCN(CC2=C(C(=O)OCC)C(c3cccc(OC)c3OC)NC(=O)N2)CC1 (stereo not drawn),inactive: -13.2%,–
CCCCc1nn2c(=O)cc(COC(=O)c3ccc(NC(=O)c4cccc(OC)c4)cc3)nc2s1,inactive: 7.03%,–
Cc1ccc(NC(=O)N2CCc3c(sc4c3CCCC4)C2c2ccccc2)cc1F (stereo not drawn),inactive: 7.1%,–
CSc1ncc(C(=O)NCc2ccccc2Cl)c(C(F)(F)F)n1,inactive: -3.1%,–
CCOc1cccc2sc(NC(=O)c3ccc(S(=O)(=O)N4CCc5ccccc54)cc3)nc12,inactive: 16.3%,–
CCc1cccc(C)c1NC(=O)C(CC)Sc1nc2ccncc2[nH]1 (stereo not drawn),inactive: 0.894%,–
Cc1cc(C)cc(NC(=O)N2CCN(C)c3ncccc32)c1,inactive: 8.6%,–
Cc1ccc2c(CC(=O)Nc3ccc(S(=O)(=O)Nc4nc(C)cc(C)n4)cc3)coc2c1,inactive: -1.45%,–
CCCCN(C)C(=O)c1ccc2c(c1)N(Cc1cccc(Cl)c1)C(=O)c1ccccc1S2=O (stereo not drawn),inactive: -17.6%,–
CCOC(=O)CSc1nc2cc3c(cc2c(=O)n1CCCCCC(=O)NCc1ccc2c(c1)OCO2)OCO3,inactive: 2.04%,–
CC1CCN(S(=O)(=O)c2ccc3nc(N4CCN(c5ccccc5F)CC4)ccc3c2)CC1,inactive: -4.63%,–
COc1ccc(/C=C(\C#N)c2nc(-c3cc4ccccc4oc3=O)cs2)cc1OC,inactive: 22.9%,–
Cc1ccc(-c2onc(C)c2C)cc1S(=O)(=O)NC1CCC(C)CC1 (stereo not drawn),inactive: -5.04%,–
CCOc1cc(C2CC(=O)Nc3c2c(C)nn3-c2nc(C)cc(C)n2)ccc1O (stereo not drawn),inactive: 1.64%,–
COC(=O)c1cccnc1-n1c(=O)c2cccnc2n(CC(=O)Nc2cccc(C(F)(F)F)c2)c1=O,inactive: -6.9%,–
CCOc1ccccc1CNC(=O)c1ccc(Cn2c(=O)c3cccn3c3cccnc32)cc1,inactive: -0.722%,–
CC(C)c1ccc(-c2noc(SCC(=O)N3CCCCC3)n2)cc1,inactive: -6.44%,–
CCCN(CCC)CCCNC(=O)c1nn(C)c2c1CS(=O)(=O)c1ccccc1-2,inactive: -7.48%,–
COc1cc(C)ccc1OCCSc1nnc(-c2cccs2)o1,inactive: -5.27%,–
O=C(/C=C/c1ccccc1)Nc1cc(-c2nc3ccccc3o2)ccc1Cl,inactive: -4.95%,–
FC(F)(F)c1cccc(N2CCN(Cc3nnc(-c4ccccc4)o3)CC2)c1,inactive: 18.7%,–

Compound,"activity change, negative = cytotoxicity",Potency
CCN(CC)c1ccc(C2C(C(N)=O)=C(C)Nc3nc(SCc4ccccc4)nn32)cc1 (stereo not drawn),inactive: 14.2%,–
O=c1c2ccccc2nc2sc(Nc3cccc(C(F)(F)F)c3)nn12,inactive: -3.18%,–
COc1ccccc1CNC(=O)c1cnn(-c2ccc(F)cc2F)c1C1CCN(C(=O)OC(C)(C)C)CC1,inactive: -9.83%,–
Cc1ccc(N2CC(NC(=O)Cc3ccc(F)cc3)CC2=O)cc1C (stereo not drawn),inactive: 11.4%,–
COCCN1CN=C(NS(=O)(=O)c2ccc(C)cc2)NC1,inactive: 8.92%,–
COc1ccc(-c2noc(CCC(=O)Nc3ccccc3Cl)n2)cc1OC,inactive: -1.03%,–
CSc1cccc(NS(=O)(=O)c2ccc3[nH]cc(C(=O)N4CCCCCC4)c(=O)c3c2)c1,inactive: 0.769%,–
Cc1cccc(Cc2c(C)nc3nc(SCC(=O)NC4CCCCC4)nn3c2C)c1,inactive: 2.74%,–
Fc1ccc(-c2noc3ncnc(NCc4cccc(Cl)c4)c23)cc1,inactive: 4.69%,–
COc1ccc(/C=C\c2onc(C)c2S(=O)(=O)N2CCC(C(=O)Nc3ccc(C)c(F)c3)CC2)cc1,inactive: -2.21%,–
CCOC(=O)c1nnc2c(-c3ccc(F)cc3)c(C)nn2c1N,inactive: 0.663%,–
Cc1cccc(C(=O)NCc2cn3cccc(C)c3n2)c1,inactive: 20.4%,–
CC(C)c1ccc(Cc2cnc(NC(=O)c3ccc4c(c3)CC(c3ccccc3)OC4=O)s2)cc1 (stereo not drawn),inactive: 0.26%,–
COc1ccccc1N1CCN(Cc2cc(COC(C)C)c3cccnc3c2O)CC1,–,active: 7.08 µM
CCOC(=O)C1CCCN(C(=O)Cn2nc(C)n3c(cc4c(OC)cccc43)c2=O)C1 (stereo not drawn),inactive: 18.5%,–
Cc1ccc(-n2c(=O)c3cccnc3n2CC(=O)Nc2ccccc2C(F)(F)F)cc1C,inactive: 8.12%,–
COc1cccc(CNC(=O)C2CCCN(S(=O)(=O)c3cn(C)cn3)C2)c1 (stereo not drawn),inactive: -3.39%,–
Cc1ccc(C)c(NC(=O)C(NS(=O)(=O)c2ccc3c(c2)CCC(=O)N3)c2ccccc2)c1 (stereo not drawn),inactive: 5.05%,–
CC[C@H](C)NC(=O)CCCc1nnc2n(CCC(C)C)c(=O)c3sccc3n12,inactive: 2.46%,–
COc1ccccc1OC(C)C(=O)N1CCN(CCc2ccccn2)CC1 (stereo not drawn),inactive: 7.99%,–
COc1ccc(-c2cn3c(n2)sc2cc(C(=O)NC4CCCCC4)ccc23)cc1,inactive: 1.79%,–

Compound,"activity change, negative = cytotoxicity",Potency
Cc1[nH]c2ccccc2c1SCCNC(=O)c1ccc(F)cc1,inactive: -23.9%,–
CCOc1ccccc1NC(=O)CSc1nc(-c2cccs2)cc(C(F)(F)F)n1,inactive: 21.5%,–
Cc1cc(-c2ccc(C)c(S(=O)(=O)NCCc3ccccc3)c2)on1,inactive: -2.27%,–
O=C(Nc1cc(-c2nc3ccccc3o2)ccc1Cl)c1cc([N+](=O)[O-])ccc1N1CCOCC1,inactive: 9.55%,–
COc1cccc(CNC(=O)C2CCN(c3ncnc4c3nc3n4CCCCC3)CC2)c1,inactive: 2.1%,–
Cc1ccc(Nc2c(-c3cccc(Cl)c3)nc3cccc(C)n23)cc1,inactive: -2.49%,–
CCC(=O)N1c2ccccc2CC1C(=O)NCCN1CCN(c2ccccc2F)CC1 (stereo not drawn),inactive: 7.17%,–
Cc1ccc(NC(=O)CSc2nc(=O)n(CCN3CCOCC3)c3c2CCC3)cc1Cl,inactive: -2.91%,–
Cn1c(=O)nc2n(-c3ccc(Br)cc3)c3cccc(Cl)c3cc-2c1=O,inactive: 0.877%,–
Cc1ccc(C)c(N2CCN(S(=O)(=O)c3ccc(C4CCCCC4)cc3)CC2)c1,inactive: 0.511%,–
CC(C)(C)OC(=O)N1CCC(c2c(C(=O)NCc3ccccn3)cnn2-c2ccccc2Cl)CC1,inactive: 11.4%,–
CN(C)C1(CNC(=O)COc2cccc(Cl)c2)CCCCC1,inactive: 16.1%,–
Cn1cc(-c2cc3n(n2)CCC(=O)N3CC(=O)NCc2ccccc2)c2ccccc21,inactive: 15.3%,–
CCOC(=O)c1cc(OC(=O)c2cc(Cl)ccc2OC)n(-c2ccccc2)n1,inactive: -0.641%,–
CCc1ccc(S(=O)(=O)c2nnn3c2nc(NCCC(C)C)c2cc(Cl)ccc23)cc1,inactive: -21.7%,–
CCc1ccccc1NC(=O)CSc1nccn1C,inactive: -0.644%,–
COc1ccccc1Nc1ncnc2c1nc1n2CCCCC1,inactive: 6.47%,–
CCOc1ccc(NS(=O)(=O)c2ccc3[nH]cc(C(=O)NCCc4ccccc4)c(=O)c3c2)cc1,inactive: -7.43%,–
Cn1c(SCC(=O)Nc2ccccc2F)nc2c([nH]c3ccccc32)c1=O,inactive: 2.46%,–
CC(=O)c1ccc(OC(=O)c2c(-c3ccccc3Cl)noc2C)cc1,inactive: 19%,–
COc1ccc2c(c1)c(CC(=O)Nc1cc(C)c(OC)c(C)c1)c(C)n2C(=O)c1ccc(Cl)cc1,inactive: -1.06%,–
